# Source: PubChem BioAssay AID540267 (National Center for Advancing Translational Sciences (NCATS), 2011)
# Out of some 340,000 compounds screened, about 530 (0.16%) were called active. The shares of active, inactive and inconclusive entries below differ from those in the screen. Rule as the data show it: active = activity change below about -80%; inconclusive = between about -30% and that limit; inactive = weaker than that.
# Assay: Small Molecules that selectively kill Giardia lamblia: qHTS;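 also: parasites exposed to compound for two days anaerobically before the ATP read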
# Conditions: Giardia lamblia trophozoite viability; at 7.66 µM; active compounds read low
# In short: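 Each well holds 100 Giardia trophozoites and compound. After two days (48 hrs) at 37 deg C in anaerobic conditions, ATP is quantified by luminescence.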
# % is scaled to controls: 0 for no effect and ±100 for the full control effect.
row,SMILES,activity change
1,O=C(NCC1CCCCC1)C1CCN(C(=O)NC2CCCCC2)CC1,inactive: 1.03%
2,CCCCc1nnc(NC(=O)CCS(=O)(=O)c2ccc(C)cc2)s1,inconclusive: -30.3% [inhibitor]
3,O=C(NCCC1=CCCCC1)C(=O)NCC(c1ccco1)N1CCN(c2ccccc2)CC1 (stereo not drawn),inactive: 0.701%
4,O=C(c1cccs1)N(Cc1cc2ccccc2[nH]c1=O)c1ccccc1,inactive: -4.45%
5,Cc1coc2cc3oc(=O)c(CCC(=O)NCCCn4ccnc4)c(C)c3cc12,inconclusive: -30.1% [inhibitor]
6,CCc1ccc(/C=N\NC(=O)c2ccc(Br)o2)s1,inactive: -6.37%
7,Cc1ccc(/C=C/c2nc3ccccc3[nH]2)o1,inconclusive: -31.7% [inhibitor]
8,COCCn1c(C)cc(C(=O)COc2cccnc2[N+](=O)[O-])c1C,inconclusive: -65% [inhibitor]
9,CCc1nc(CNC(=O)C2CCC(=O)N(Cc3cccc(OC)c3)C2)no1 (stereo not drawn),inactive: 13.5%
10,Cc1cs/c(=N/C(=S)Nc2ccccc2)n1C,inconclusive: -43.1% [inhibitor]
11,Cc1nnc(NCc2ccco2)c2ccccc12,inactive: 0.563%
12,CSc1ccc(CCNC(=O)CN2C(=O)CCSc3ccccc32)cc1,inconclusive: -37.1% [inhibitor]
13,Cc1cc(=O)[nH]c(SCC(=O)Nc2ccc3c(c2)CCC3)c1C#N,inconclusive: -34.8% [inhibitor]
14,COc1ccccc1NC(=O)C1=C(C)NC(=O)NC1c1ccco1 (stereo not drawn),inconclusive: -37.7% [inhibitor]
15,CCOc1ccc(OCCC(=O)N2CCN(S(=O)(=O)c3ccc(OCC)cc3)CC2)cc1,inconclusive: -43.6% [inhibitor]
16,CCc1c(C(=O)N/N=C/c2sccc2C)nnn1-c1nonc1N,inactive: -7.29%
17,CCOC(=O)c1c(S(=O)(=O)NC2CCN(C(=O)OCC)CC2)c(C)n(C)c1C,inconclusive: -32.3% [inhibitor]
18,CCc1ccc(N2CC(C(=O)NC3CCCCC3C)CC2=O)cc1 (stereo not drawn),inactive: 3.97%
19,CCCCN1/C(=C/c2cccc[n+]2C)Sc2cc(NC(C)=O)ccc21,inconclusive: -38% [inhibitor]
20,CC(=O)Nc1ccc(S(=O)(=O)N[C@@H](C)C(=O)NC2CCCc3ccccc32)cc1 (stereo partly drawn),inconclusive: -36.5% [inhibitor]
21,COc1ccccc1-c1cc(C(=O)N/N=C/c2ccc(C)o2)c2ccccc2n1,inconclusive: -32.1% [inhibitor]
22,CN(Cc1ccc(C(F)(F)F)cc1)C(=O)C1CCC(=O)N(C2CC2)C1 (stereo not drawn),inconclusive: -34.9% [inhibitor]
23,CCCc1ccc(-c2cc(C(=O)N3CCN(c4ccccn4)CC3)c3ccccc3n2)cc1,inconclusive: -64.4% [inhibitor]
24,CCn1nnc(NC(=O)c2ccc([N+](=O)[O-])o2)n1,active: -103%
25,C=CCNC(=O)Cn1nnc(-c2ccc(-c3ccc(OC)cc3)cc2)n1,inconclusive: -32% [inhibitor]
26,CCc1ccc(NC(=O)C/C(C)=N/NC(=O)COc2ccccc2C)cc1,inconclusive: -32.6% [inhibitor]

row,SMILES,activity change
1,COc1ccc(C)cc1NC(=O)Cc1c(C(=O)O)n(C)c2ccccc12,inconclusive: -39.6% [inhibitor]
2,CCN(CC)S(=O)(=O)c1cccc(NC(=O)CCSc2ccc(Cl)cc2)c1,inactive: 8.87%
3,COc1c(O)ccc(/C=N\NC(=O)c2ccc3c(c2)OCO3)c1[N+](=O)[O-],inactive: 12%
4,COc1cc(OC)cc(-c2cc3cc4c(cc3cn2)OCO4)c1,inconclusive: -30.4% [inhibitor]
5,O=C(CN1CCCCCCC1)N/N=C/c1ccc([N+](=O)[O-])o1,inconclusive: -69.4% [inhibitor]
6,CC1CC1c1ccc(/C=C(\C#N)C(=O)Nc2ccccc2Cl)o1 (stereo not drawn),inactive: 8.51%
7,NC(=O)c1ccc(NC(=O)CC23CC4CC(CC(Br)(C4)C2)C3)cc1,inconclusive: -34% [inhibitor]
8,CN(CC(=O)Nc1ccc(F)c(F)c1F)C(=O)c1cc(-c2ccncc2)nc2ccccc12,inactive: 5.69%
9,O=C(COc1ccc(Cl)cc1Cl)Nc1ccc(Cl)cn1,inconclusive: -35.1% [inhibitor]
10,COc1ccc(C(=O)C(C)OC(=O)CNC(=O)C2CCCCC2)cc1 (stereo not drawn),inconclusive: -56% [inhibitor]
11,CCn1cc(C(=O)O)c(=O)c2cc(F)c(N/N=C/c3ccccc3[N+](=O)[O-])cc21,inactive: 2.44%
12,CC(=O)Nc1cccc(C(=O)N2CCN(S(=O)(=O)c3ccc4ccccc4c3)CC2)c1,inconclusive: -34% [inhibitor]
13,O=C(COC(=O)c1cccs1)NCC1CCCCC1,inactive: 0.192%
14,CCOC(=O)c1cnc(Nc2nc3ccccc3o2)nc1C,inconclusive: -61.2% [inhibitor]
15,O=C(Nc1ccc(Oc2ccccc2)nc1)C1CCN(Cc2ccccc2)CC1,inconclusive: -32.6% [inhibitor]
16,CN1C(=O)/C(=C/c2cccc([N+](=O)[O-])c2)C(=O)N1c1ccccc1,inconclusive: -31.1% [inhibitor]
17,COc1ccccc1Nc1nnc(SCc2cc(=O)n3cc(C)ccc3n2)s1,inconclusive: -33.3% [inhibitor]
18,Cc1cccc(S(=O)(=O)Nc2ccc(C)c3c2OC(C)(C)C3)c1,inactive: 9.94%
19,COC(=O)c1ccc(-c2nc3cc(Cl)c(N)cc3s2)cc1,inconclusive: -69% [inhibitor]
20,NS(=O)(=O)c1cc(C(=O)OCC(=O)c2ccc3c(c2)OCCO3)ccc1Cl,inconclusive: -58.3% [inhibitor]
21,NS(=O)(=O)c1ccc(CCNC(=O)CCCn2ncn3c(cc4occc43)c2=O)cc1,inconclusive: -33.6% [inhibitor]
22,O=C(O)C1CCN(c2ccccc2[N+](=O)[O-])CC1,inconclusive: -62.1% [inhibitor]
23,Cc1c(C#N)c(O)n(CCO)c(=O)c1N=Nc1ccccc1,inconclusive: -42.7% [inhibitor]
24,O=C(NCC1CCN(Cc2ccc(F)cc2)CC1)Nc1cc(F)ccc1F,inconclusive: -45% [inhibitor]
25,O=c1cc2oc3cc(O)c(O)cc3c(-c3ccccc3[N+](=O)[O-])c-2cc1O,inconclusive: -43.5% [inhibitor]
26,CCn1c(=NC(=O)c2ccc(N3C(=O)CCC3=O)cc2)sc2c(OC)ccc(OC)c21,inconclusive: -62.8% [inhibitor]

row,SMILES,activity change
1,COc1cccc(NC(=O)COc2cccnc2[N+](=O)[O-])c1,inconclusive: -55.1% [inhibitor]
2,COc1ccc2[nH]c(-c3ccc(C)cc3)cc(=O)c2c1,inconclusive: -51.6% [inhibitor]
3,COc1ccc(CCNC(=O)c2cccc([N+](=O)[O-])c2)cc1OC,inconclusive: -36.8% [inhibitor]
4,O=C(O)CCCCCCCCCC(=O)c1cccs1,inconclusive: -36.2% [inhibitor]
5,O=C(NC1CCCCCC1)C1Cc2ccccc2CN1C(=O)c1ccco1 (stereo not drawn),inconclusive: -34.4% [inhibitor]
6,COc1cccc(C2C(C#N)=C(C)NC3=C2C(=O)CC(C)(C)C3)c1 (stereo not drawn),inactive: 0.0222%
7,COc1cccc(/C=C2/SC(=S)N(CC(=O)Nc3nnc(C)s3)C2=O)c1,inconclusive: -30.6% [inhibitor]
8,O=C(Nc1ccccc1OCc1ccccc1)c1ccccc1Br,inactive: 2.29%
9,Nc1cc2[nH]c(=O)c3ccccc3c2cc1[N+](=O)[O-],inconclusive: -37.5% [inhibitor]
10,CCn1nnc(NC(=O)c2ccc(-c3ccc(Cl)cc3)o2)n1,inconclusive: -36.8% [inhibitor]
11,CCCc1nn(C)c(C(=O)Nc2ccc3ccccc3c2)c1Cl,inactive: -6.09%
12,COC(=O)Cn1c(=O)c2c(nc3n2CCCN3CCc2ccccc2)n(C)c1=O,inactive: 7.46%
13,O=C(NCCCn1ccnc1)C(=O)NCC1OCCN1S(=O)(=O)c1ccc(Cl)cc1 (stereo not drawn),inconclusive: -30.1% [inhibitor]
14,COCCNC(=O)/C(C#N)=C/c1ccc(O)c([N+](=O)[O-])c1,inconclusive: -60.2% [inhibitor]
15,COc1ccc(NC(C)=O)cc1S(=O)(=O)N1CCN(C(=O)c2ccccc2F)CC1,inactive: 3%
16,Cc1cccc(C)c1OCC(=O)N(Cc1cccs1)C1CCS(=O)(=O)C1 (stereo not drawn),inconclusive: -45.5% [inhibitor]
17,O=[N+]([O-])c1cccc(-c2nc3ccc([N+](=O)[O-])cc3[nH]2)c1,inconclusive: -36% [inhibitor]
18,Cc1ccc(Nc2ccc(N3CCN(c4ccc([N+](=O)[O-])cc4)CC3)nn2)cc1,inactive: -18.8%
19,O=C1/C(=C2\C(=O)N(Cc3ccc(F)cc3)c3ccccc32)SC(=S)N1CCS(=O)(=O)O,inconclusive: -37.4% [inhibitor]
20,c1ccc(N=Nc2ccc3cccccc2-3)cc1,inconclusive: -64.1% [inhibitor]
21,O=C(O)c1ccccc1/C=N/NC(=S)NCc1ccccc1,inactive: 6.55%
22,COc1ccc(-c2nc(C#N)c(NCc3ccc(F)cc3)o2)cc1OC,inconclusive: -36% [inhibitor]
23,CCn1c(=O)n(CC)c2cc(N)ccc21,inconclusive: -52.3% [inhibitor]
24,CCCCN(CCCC)c1nc2ccccc2nc1C(C#N)C(=O)NCCCOC (stereo not drawn),inactive: 20.4%
25,CCCN1CNc2c(c(=O)[nH]c(=S)n2CCc2ccc(OC)c(OC)c2)C1,inconclusive: -30.5% [inhibitor]
26,Clc1ccc(-c2nnc(-c3cccnc3)o2)cc1,inactive: 15.2%
